Values marked as one replicate rest on one cluster of the flow cell; about a third of the high ones do not repeat.
Each sequence was assayed on ATP (assay: switch fluorescence ratio, 500 uM ATP over buffer (Cy3 cluster intensity, sum of 5 cycles each) (fold (ratio)); higher = stronger signal-on switching upon ATP binding; sequences stand for … in TCGTCGGCAGCGTCAGATGTGTATAAGAGACAGTTTTTTTTTTTTTTTTTTTTTTTTT…TC). Conditions: aptamer strand: ATP DNA aptamer (quencher-CACCTGGGGGAGTATTGCGGAGGAAGG + anchor), 100 nM annealed; ATP concentration: 500 uM; one replicate.
In short: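 Between each of five buffer/ATP cycles, the flow-cell was stripped with NaOH and re-annealed. Each cycle imaged Cy3-labelled switching-strand clusters, annealed to 100 nM quencher-labelled ATP aptamer on a modified Illumina MiSeq flow-cell, first in selection buffer and then after 15 min with 500 uM ATP at 22 °C. The fluorescence ratio is summed target-cycle over summed buffer-cycle Cy3 intensity per cluster, averaged per switch-domain sequence, with clusters outside 100-1000 RFU excluded.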
GTAAGTTCAG was tested, and the switch fluorescence ratio was 1.02.
GTAATAATAT gave a switch fluorescence ratio of 0.977.
In the case of GTAATACAAG, the switch fluorescence ratio is reported as 1.
Work on GTAATATTTG yielded a switch fluorescence ratio of 0.979.
With GTAATCTTTG the switch fluorescence ratio was 0.995.
GTAATGCGGC was tested, and the switch fluorescence ratio was 1.1.
In the case of GTAATGGACG, the switch fluorescence ratio is reported as 0.977.
GTAATTGAAT showed a switch fluorescence ratio of 1.01.
In the case of GTAATTTCCC, the switch fluorescence ratio is reported as 1.03.
Work on GTAATTTTTA yielded a switch fluorescence ratio of 0.982.
With GTACAAGATT the switch fluorescence ratio was 1.03.
GTACAATTTT showed a switch fluorescence ratio of 1.
With GTACAGCTAT the switch fluorescence ratio was 1.05.
GTACCACGCG gave a switch fluorescence ratio of 1.05.
In the case of GTACCAGACT, the switch fluorescence ratio is reported as 1.02.
GTACCATGCA showed a switch fluorescence ratio of 1.
Work on GTACCTGGTA yielded a switch fluorescence ratio of 1.01.
With GTACGATAGT the switch fluorescence ratio was 1.05.
Sequence GTACGATTGG has a switch fluorescence ratio of 0.986.
With GTACGCATG the switch fluorescence ratio was 1.03.
Sequence GTACGTGGCC has a switch fluorescence ratio of 1.05.
Sequence GTACTAAAGG has a switch fluorescence ratio of 1.05.
GTACTCCATC was tested, and the switch fluorescence ratio was 1.08.
In the case of GTACTGAGCC, the switch fluorescence ratio is reported as 1.05.
GTACTGTTGA gave a switch fluorescence ratio of 0.972.
Sequence GTACTTACTA has a switch fluorescence ratio of 1.19.
In the case of GTACTTACTC, the switch fluorescence ratio is reported as 1.25.
Sequence GTAGAGCGTG has a switch fluorescence ratio of 1.
GTAGAGGGTT gave a switch fluorescence ratio of 0.98.
GTAGATAGGA showed a switch fluorescence ratio of 1.05.
For GTAGATGGGT, the switch fluorescence ratio was 1.
For GTAGCCAATA, the switch fluorescence ratio was 2.2.
With GTAGCCGGTG the switch fluorescence ratio was 1.07.
GTAGCGAGCG gave a switch fluorescence ratio of 0.962.
GTAGGATGGG showed a switch fluorescence ratio of 1.04.
GTAGGATTG was tested, and the switch fluorescence ratio was 0.999.
GTAGGCCGCT gave a switch fluorescence ratio of 1.
GTAGGCTATG was tested, and the switch fluorescence ratio was 0.976.
Work on GTAGGGAAAT yielded a switch fluorescence ratio of 0.95.
Sequence GTAGGGATCG has a switch fluorescence ratio of 1.01.
GTAGGGGCAC gave a switch fluorescence ratio of 1.
Work on GTAGGGTAGG yielded a switch fluorescence ratio of 0.992.
GTAGGGTT was tested, and the switch fluorescence ratio was 0.955.
Work on GTAGGGTTGT yielded a switch fluorescence ratio of 0.987.
For GTAGTAATCT, the switch fluorescence ratio was 1.12.
GTAGTACGGG was tested, and the switch fluorescence ratio was 1.04.
GTAGTAGTCC gave a switch fluorescence ratio of 0.969.
Sequence GTAGTAGTCG has a switch fluorescence ratio of 0.921.
Work on GTAGTATGTG yielded a switch fluorescence ratio of 0.996.
Sequence GTAGTCAGCT has a switch fluorescence ratio of 0.988.
GTAGTCCGCA showed a switch fluorescence ratio of 3.83.
For GTAGTGAACT, the switch fluorescence ratio was 0.99.
GTAGTGCTCG was tested, and the switch fluorescence ratio was 1.01.
Sequence GTAGTGGGTC has a switch fluorescence ratio of 0.998.
Work on GTAGTTTTAG yielded a switch fluorescence ratio of 0.99.
GTATAAATCT showed a switch fluorescence ratio of 1.07.
With GTATAATGG the switch fluorescence ratio was 1.02.
In the case of GTATACGCTT, the switch fluorescence ratio is reported as 0.988.
Work on GTATAGAGCC yielded a switch fluorescence ratio of 0.983.
GTATAGCAG was tested, and the switch fluorescence ratio was 0.992.
Sequence GTATAGTCTA has a switch fluorescence ratio of 0.947.
In the case of GTATCATAGC, the switch fluorescence ratio is reported as 0.992.
With GTATCCGATG the switch fluorescence ratio was 1.02.
With GTATCTAGCT the switch fluorescence ratio was 0.944.
GTATCTATCC showed a switch fluorescence ratio of 1.03.
With GTATGATCAC the switch fluorescence ratio was 1.12.
In the case of GTATGCACGG, the switch fluorescence ratio is reported as 0.925.
GTATGCGCTC gave a switch fluorescence ratio of 0.985.
In the case of GTATGGCCTT, the switch fluorescence ratio is reported as 1.02.
In the case of GTATGGTGAG, the switch fluorescence ratio is reported as 0.976.
Sequence GTATTACGAG has a switch fluorescence ratio of 1.02.
GTATTCACAA showed a switch fluorescence ratio of 1.02.
With GTATTCTATT the switch fluorescence ratio was 1.01.
For GTATTCTTGA, the switch fluorescence ratio was 0.985.
Work on GTATTGGATT yielded a switch fluorescence ratio of 0.952.
Work on GTATTTTAGA yielded a switch fluorescence ratio of 1.05.
GTCAAATTTT gave a switch fluorescence ratio of 1.02.
Work on GTCAACGGAA yielded a switch fluorescence ratio of 1.07.
With GTCAACTGCG the switch fluorescence ratio was 0.992.
GTCAATCACG gave a switch fluorescence ratio of 1.07.
GTCACCGCGA was tested, and the switch fluorescence ratio was 2.73.
For GTCACGATCT, the switch fluorescence ratio was 0.947.
GTCACGGCGT was tested, and the switch fluorescence ratio was 0.998.
GTCACTAGAC gave a switch fluorescence ratio of 1.06.
For GTCACTGCGA, the switch fluorescence ratio was 1.09.
In the case of GTCAGAGCAA, the switch fluorescence ratio is reported as 1.9.
With GTCAGCACTC the switch fluorescence ratio was 1.41.
With GTCAGCATGA the switch fluorescence ratio was 0.974.
GTCAGTACGC gave a switch fluorescence ratio of 1.12.
In the case of GTCAGTATCA, the switch fluorescence ratio is reported as 0.971.
Work on GTCAGTGGTC yielded a switch fluorescence ratio of 0.955.
GTCAGTGGTT showed a switch fluorescence ratio of 0.96.
GTCAGTTCGA showed a switch fluorescence ratio of 0.995.
With GTCATCTCGC the switch fluorescence ratio was 1.06.
Work on GTCATGGTTG yielded a switch fluorescence ratio of 0.938.
GTCATTACCT showed a switch fluorescence ratio of 1.02.
GTCATTTGCT was tested, and the switch fluorescence ratio was 0.984.
GTCCAAGTGA was tested, and the switch fluorescence ratio was 1.02.
GTCCACTTCG was tested, and the switch fluorescence ratio was 1.02.
GTCCACTTTC gave a switch fluorescence ratio of 1.05.
GTCCAGAGAT was tested, and the switch fluorescence ratio was 1.07.
GTCCAGCCAG gave a switch fluorescence ratio of 1.03.
For GTCCAGTTCA, the switch fluorescence ratio was 1.01.
GTCCATGGTA showed a switch fluorescence ratio of 1.02.
GTCCCAGTTT was tested, and the switch fluorescence ratio was 0.993.
GTCCCCGTG was tested, and the switch fluorescence ratio was 1.05.
GTCCGGCACA gave a switch fluorescence ratio of 1.09.
In the case of GTCCGTAATT, the switch fluorescence ratio is reported as 2.21.
GTCCGTAGAG gave a switch fluorescence ratio of 1.04.
GTCCTAAATA was tested, and the switch fluorescence ratio was 1.04.
GTCCTCGACC gave a switch fluorescence ratio of 0.974.
GTCCTGCAGA was tested, and the switch fluorescence ratio was 1.07.
For GTCCTTCCTG, the switch fluorescence ratio was 1.73.
In the case of GTCGAAAATA, the switch fluorescence ratio is reported as 0.998.
GTCGAAATAA showed a switch fluorescence ratio of 1.02.
Sequence GTCGAAATAG has a switch fluorescence ratio of 1.52.
For GTCGAACTTG, the switch fluorescence ratio was 0.93.
GTCGAAGGGG was tested, and the switch fluorescence ratio was 1.05.
With GTCGACGTGT the switch fluorescence ratio was 0.963.
Sequence GTCGAGCTGA has a switch fluorescence ratio of 1.03.
With GTCGCCCGTT the switch fluorescence ratio was 1.04.
GTCGCCGGTC showed a switch fluorescence ratio of 0.965.
GTCGCTTCGC was tested, and the switch fluorescence ratio was 1.06.
In the case of GTCGGATTGG, the switch fluorescence ratio is reported as 1.02.
Sequence GTCGGGAATA has a switch fluorescence ratio of 1.01.
GTCGGGAGTC was tested, and the switch fluorescence ratio was 0.968.
GTCGGTAGAT was tested, and the switch fluorescence ratio was 0.975.
In the case of GTCGTGCAAC, the switch fluorescence ratio is reported as 1.05.
GTCGTGCCCC gave a switch fluorescence ratio of 0.979.
Work on GTCGTGCTT yielded a switch fluorescence ratio of 1.01.
GTCGTTATAG was tested, and the switch fluorescence ratio was 1.02.
With GTCTAAATGC the switch fluorescence ratio was 1.19.
GTCTAATCCA was tested, and the switch fluorescence ratio was 1.02.
Work on GTCTATTTTT yielded a switch fluorescence ratio of 1.09.
In the case of GTCTCACGTT, the switch fluorescence ratio is reported as 0.983.
Work on GTCTCAGGTA yielded a switch fluorescence ratio of 1.03.
GTCTCCCCGT was tested, and the switch fluorescence ratio was 1.24.
Sequence GTCTGAACGC has a switch fluorescence ratio of 1.2.
Sequence GTCTGGGATT has a switch fluorescence ratio of 1.02.
GTCTGGGTGG was tested, and the switch fluorescence ratio was 0.977.
GTCTGTCGCT showed a switch fluorescence ratio of 0.962.
In the case of GTCTTACTGT, the switch fluorescence ratio is reported as 0.96.
GTCTTGCGCT showed a switch fluorescence ratio of 1.01.
GTCTTGGGG was tested, and the switch fluorescence ratio was 0.99.
In the case of GTCTTTCGTC, the switch fluorescence ratio is reported as 0.988.
With GTCTTTGTCT the switch fluorescence ratio was 0.977.
GTGAAAAGAC showed a switch fluorescence ratio of 0.994.
GTGAAAAGCT showed a switch fluorescence ratio of 1.04.
GTGAAACCTT was tested, and the switch fluorescence ratio was 1.2.
GTGAAAGCAG showed a switch fluorescence ratio of 1.01.
With GTGAAATCTG the switch fluorescence ratio was 0.887.
For GTGAACGCCT, the switch fluorescence ratio was 1.01.
With GTGAAGCCGG the switch fluorescence ratio was 1.03.
Sequence GTGAAGCGTA has a switch fluorescence ratio of 1.
GTGAAGGAGA showed a switch fluorescence ratio of 1.
With GTGAAGGAGG the switch fluorescence ratio was 0.973.
For GTGAAGTAAC, the switch fluorescence ratio was 1.01.
GTGAATATGT was tested, and the switch fluorescence ratio was 0.957.
GTGAATCTAA was tested, and the switch fluorescence ratio was 0.984.
GTGACACAGT was tested, and the switch fluorescence ratio was 1.02.
In the case of GTGACACCCC, the switch fluorescence ratio is reported as 1.19.
With GTGACCATTC the switch fluorescence ratio was 1.01.
GTGACCGCCT was tested, and the switch fluorescence ratio was 1.04.
Work on GTGACTGTGC yielded a switch fluorescence ratio of 1.13.
Sequence GTGAGATTCA has a switch fluorescence ratio of 1.03.
GTGAGGACGG was tested, and the switch fluorescence ratio was 1.01.
GTGAGTACGG was tested, and the switch fluorescence ratio was 1.03.
In the case of GTGAGTGAGT, the switch fluorescence ratio is reported as 0.992.
In the case of GTGAGTTTCG, the switch fluorescence ratio is reported as 1.
Work on GTGATACGTG yielded a switch fluorescence ratio of 0.978.
Work on GTGATAGAGA yielded a switch fluorescence ratio of 0.984.
Work on GTGATGCGAG yielded a switch fluorescence ratio of 0.956.
Sequence GTGATGGTTA has a switch fluorescence ratio of 1.02.
GTGATTATAT showed a switch fluorescence ratio of 0.963.
GTGATTTTAG showed a switch fluorescence ratio of 0.964.
GTGCAAAAT was tested, and the switch fluorescence ratio was 1.01.
In the case of GTGCAAAC, the switch fluorescence ratio is reported as 1.06.
Work on GTGCAAGCTA yielded a switch fluorescence ratio of 1.01.
Work on GTGCAATCTA yielded a switch fluorescence ratio of 1.24.
Work on GTGCAATGCG yielded a switch fluorescence ratio of 1.85.
With GTGCACCAGC the switch fluorescence ratio was 1.03.
Sequence GTGCAGGTTT has a switch fluorescence ratio of 1.02.
GTGCAGTCTG showed a switch fluorescence ratio of 1.01.
With GTGCATAGGG the switch fluorescence ratio was 1.02.
GTGCCCTAGT gave a switch fluorescence ratio of 1.01.
In the case of GTGCGAGTGG, the switch fluorescence ratio is reported as 1.03.
GTGCGCGGAT showed a switch fluorescence ratio of 1.04.
With GTGCGGAATT the switch fluorescence ratio was 1.2.
Work on GTGCGGGCGA yielded a switch fluorescence ratio of 0.987.
Work on GTGCTAAAG yielded a switch fluorescence ratio of 0.988.
GTGCTAGATG gave a switch fluorescence ratio of 1.
In the case of GTGCTAGGAG, the switch fluorescence ratio is reported as 1.02.
For GTGCTCAGT, the switch fluorescence ratio was 0.957.
With GTGCTGAA the switch fluorescence ratio was 0.948.
For GTGCTGATGG, the switch fluorescence ratio was 0.997.
Sequence GTGCTTGCAT has a switch fluorescence ratio of 0.987.
Work on GTGGAATCGC yielded a switch fluorescence ratio of 0.994.
GTGGAATGCC gave a switch fluorescence ratio of 0.975.
GTGGACCTGT gave a switch fluorescence ratio of 0.994.
With GTGGACGTGT the switch fluorescence ratio was 0.944.
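Further: ATP exposure 15 min at 22 °C before imaging.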
